The series concerns the molecule itself. Description: SEC; FPLC gel filtration, Superdex HR 10/30 column, 50 mM NaCO3 (pH 11.0), 150 mM NaCl; calibrated with IgG, BSA and ovalbumin; oligomeric state (tetramer).

B1: Avidin mutant K111I, produced in insect cells (natural protein, chicken, UniProt P02701 25-152, looked up)
chain: ARKCSLTGKWTNDLGSNMTIGAVNSRGEFTGTYITAVTATSNEIKESPLHGTQNTINKRTQPTFGFTVNWKFSESTTVFTGQCFIDRNGKEVLKTMWLLRSSVNDIGDDWIATRVGINIFTRLRTQKE
notes: avidin, chicken, with K111I; An E. coli form, AVD(K111I)-b, was also made; also called AVD(K111I)
B1: the stoichiometry N – broadly, a count of units in the complex or per binding partner – was determined as 4.

The values above are taken from article PMC1282572, “Avidin related protein 2 shows unique structural and functional features among the avidin protein family” (BMC Biotechnology, 2005).
